# Reference: PubChem BioAssay AID1508623 (National Center for Advancing Translational Sciences (NCATS), 2021)
# Screen size: about 48,000 compounds; about 450 (0.94%) were called active. Inconclusive means that the source gave no clear call. Such entries were picked first, then a sample of the others. The call rests on the fitted dose curve; in most records, active means well fitted inhibition curve with a large enough effect; inconclusive means small, poorly fitted or top-dose-only effect; inactive means no such curve, though single readings can be large or run the other way. Potencies beside an inconclusive call are fits to weak or partial responses and may not hold up.
# Assay: Primary qHTS for Identification of Small Molecule Inhibitors of Huntingtin Promoter Activity; further: nearly all actives have a fitted effect of over 50% in size
# Conditions: HEK293 HTT promoter firefly luciferase reporter (activity 0% = vehicle and -100% = no light), 24 h; activity change, negative = inhibition: at 57.5 µM (top of the series)
# Procedure, shortened: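 HEK293 luciferase promoter-reporter cells (2,500/well) plated 24 h, then compounds added at up to 57.5 uM final for 24 h at 37 °C. Firefly luminescence by Dual-Glo, normalized to vehicle (0%) and zero RLU (-100%).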
# Potency means the concentration at half of the fitted maximal effect; tags describe the fitted curve by direction and shape.
Structure (SMILES),Potency,"activity change, negative = inhibition"
CCOc1ccc(Nc2ncnc3c2nc2n3CCCCC2)cc1,"inconclusive: 39.8 µM [inhibitor, single point]",
Cc1cccc(N2CCN(C(=O)Cn3ncc4c3-c3ccccc3OC4)CC2)c1C,"inconclusive: 31.6 µM [inhibitor, single point]",
O=C(Nc1nnc(S(=O)(=O)N2CCCCCC2)s1)c1cccc(Br)c1,"inconclusive: 31.6 µM [inhibitor, single point]",
Clc1cccc(N2CCN(c3c4c(nc5nncn35)CCC4)CC2)c1,"inconclusive: 2 µM [inhibitor, full curve]",
CCOC(=O)c1ccccc1NC(=O)c1ccc2c(Cl)c3c(nc2c1)CCC3,,inactive: -3.74%
CCOc1ccc(NC(=O)CN2CCN(C3CCCCC3)C(=O)C2=O)cc1,"inconclusive: 8.91 µM [inhibitor, partial curve, poor fit]",
Cc1cc(-c2ccc(S(=O)(=O)NCc3ccccc3Cl)s2)on1,"inconclusive: 14.1 µM [inhibitor, partial curve, poor fit]",
CCOc1ccc(C(=O)NCc2ccc3c(c2)CCN3C(=O)c2ccccc2)cc1,"inconclusive: 31.6 µM [inhibitor, single point]",
CCc1ccc(NC(=O)CSC2=Nc3ccccc3C3=NC(CCC(=O)NCCc4ccccc4)C(=O)N23)cc1 (centres undefined),"inconclusive: 39.8 µM [inhibitor, single point]",
CC(=O)c1cccc(Nc2ccc3cc(S(=O)(=O)N4CCC(C)CC4)ccc3n2)c1,,inactive: -11.7%
CC(=O)c1ccc(NS(=O)(=O)c2cc(-c3cc(C)no3)ccc2C)cc1,"inconclusive: 14.1 µM [inhibitor, partial curve]",
CC(C)c1ccc(-c2nnc3n(CCc4ccccc4)c(=O)c4ccccc4n23)cc1,"inconclusive: 35.5 µM [inhibitor, single point]",
CCOC(=O)Oc1ccc(CCNC(=O)[C@H](CCSC)NC(C)=O)cc1OC(=O)OCC,,inactive: 0.517%
CCSc1ncc(Cl)c(C(=O)Nc2c(C(=O)Nc3cccc(C)c3)oc3ccccc23)n1,,inactive: -5.4%
COc1ccc(NC(=O)c2sc3nc4c(cc3c2N)CN(Cc2ccccc2)CC4)cc1,,inactive: 0.129%
CCc1ccc(C2Sc3ccccc3NC3=C2C(=O)c2ccccc23)cc1 (centres undefined),"inconclusive: 39.8 µM [inhibitor, single point]",
COc1ccc(C(=O)NCCc2sc(-c3ccc(F)cc3)nc2C)cc1OC,"inconclusive: 28.2 µM [inhibitor, partial curve]",
CCC(C(=O)NC1CCCCC1)n1c(SCc2ccc(F)cc2)nc2ccncc21 (centres undefined),"inconclusive: 25.1 µM [inhibitor, single point]",
Cc1ccc(C2c3[nH]c4ccccc4c3CCN2C(=O)Nc2ccc(C)c(C)c2)cc1 (centres undefined),"inconclusive: 25.1 µM [inhibitor, partial curve, poor fit]",
O=C(NCCc1ccc(Cl)cc1)c1ccc(CSCc2ccccc2Cl)o1,"inconclusive: 14.1 µM [inhibitor, partial curve, poor fit]",

Structure (SMILES),Potency,"activity change, negative = inhibition"
CC(=O)c1cccc(NC(=O)c2nc(-c3ccc(C)cc3)n3c2CCCCC3)c1,"inconclusive: 28.2 µM [inhibitor, single point]",
COc1ccc(C2(CNC(=O)C(=O)Nc3cccc(C(F)(F)F)c3)CCCC2)cc1OC,"inconclusive: 28.2 µM [inhibitor, partial curve, poor fit]",
Nc1cc(=O)nc(SCC(=O)Nc2ccc(F)cc2)n1-c1ccc(Cl)cc1,"inconclusive: 0.282 µM [inhibitor, full curve, poor fit]",
Cc1cccc(NC(=O)Cn2c(=O)oc3cc(S(=O)(=O)NCc4ccccc4)ccc32)c1,"inconclusive: 22.4 µM [inhibitor, partial curve]",
COc1ccc(Br)cc1C1CC(=O)Nc2c1c(C)nn2-c1nc(C)cc(C)n1 (centres undefined),,inactive: -16.2%
CCC(C(=O)N1CCN(c2cc(Cl)ccc2C)CC1)n1nc(C)n2c(cc3occc32)c1=O (centres undefined),"inconclusive: 28.2 µM [inhibitor, single point]",
COc1ccc(N2CCN(C(=O)c3cc4c(=O)n(Cc5ccccc5)ccc4nc3C)CC2)cc1,"inconclusive: 25.1 µM [inhibitor, partial curve, poor fit]",
CCc1ccc(CNC(=O)c2cnc(N3CCCCC3)c3ccccc23)cc1,"inconclusive: 39.8 µM [inhibitor, single point]",
CN1C(C(=O)Nc2ccccn2)=C(O)c2sc(Cl)cc2S1(=O)=O,"inconclusive: 24.3 µM [inhibitor, single point]",
CC1CCN(S(=O)(=O)c2cc(C(=O)NCc3ccc(N(C)C)cc3)n(C)c2)CC1,,inactive: -25.6%
O=C(CN1C(=O)CC(c2ccco2)Sc2ccccc21)Nc1cccc(C(F)(F)F)c1 (centres undefined),"inconclusive: 14.1 µM [inhibitor, single point]",
Cc1ccccc1CNC(=O)c1ccc(NC(=O)N2CCCCc3ccccc32)cc1,,inconclusive: -31.4% [inhibitor]
COc1cc(CNCCSc2nnnn2C)ccc1OCc1ccccc1C,,inactive: 9.19%
Cc1c(CN(C)C(=O)c2cc(-c3ccccc3)nc3ccc(Br)cc23)cnn1C,"inconclusive: 28.2 µM [inhibitor, partial curve, poor fit]",
Cc1ccc(S(=O)(=O)c2c(Nc3ccc(C)c(C)c3)sc(C(=O)c3ccc4c(c3)OCO4)c2N)cc1,"inconclusive: 3.16 µM [inhibitor, full curve]",
O=C1CN(C(=O)c2ccc(S(=O)(=O)N3CCCC3)cc2)C(c2ccccc2)c2cc(Cl)ccc2N1 (centres undefined),"inconclusive: 39.8 µM [inhibitor, single point]",
COc1ccc(C(=O)Nc2nc(-c3nnn(-c4ccc(F)cc4F)c3C)ns2)cc1,"inconclusive: 28.2 µM [inhibitor, partial curve]",
COc1ccc(Cl)cc1NC(=O)CSc1nnc2[nH]c(=O)cc(C)n12,,inactive: -9.05%
Cc1ccc(CNC(=O)Cn2cc3c(n2)-c2c(oc(C(=O)N4CCOCC4)c2C)CC3)cc1,"inconclusive: 22.4 µM [inhibitor, partial curve, poor fit]",
